The whole screen tested about 150,000 compounds, of which about 540 (0.36%) showed an effect of 50% or more. This is one part of the list.

This assay relates to Plasmodium falciparum. Nature of the assay: Primary screen in NF54 nanoGlo assay, in single point, at 2uM, 72h; a lower Z score goes with more inhibition. In kind it is functional, Erythrocyte. The note with it: timepoint 72 hour.
For `COc1ccc(CC(=O)N2CC[C@@]3(CCC(=O)N3)C2)cc1`, the % Inhibition (as a rule, the relative decrease from the control value, in per cent) is given as -6% and the Z score turned out to be 0.79.

As for `Cc1cc(C(=O)N2CCOCC2)ccc1N(C)S(=O)(=O)c1ccccc1`, the “% Inhibition” value is reported as -3% and the Z score was 0.36.

In the case of `O=C(NOc1ccc(Cl)c(Cl)c1)[C@@H]1COCCO1`, the “% Inhibition” value was -15% and the Z score is recorded as 2.83.

Consider `CCCCN1CCN(c2ncnc3c2c(C)nn3C)CC1=O`, for which the “% Inhibition” value is given as -6% and the Z score amounted to 1.15.

In the case of `NC1CCN(C(=O)c2cnn(-c3ncccc3Cl)c2C(F)(F)F)CC1`, the “% Inhibition” value was -3% and the Z score is reported as 0.36.

For `Cc1nn(C)c(Cl)c1S(=O)(=O)Oc1ccc2c(c1)CCC2`, the “% Inhibition” value is -7% and the Z score is recorded as 1.12.

Consider `Cc1n[nH]c(C)c1Cc1n[nH]c(=O)n1CC1CCCCC1`, for which the “% Inhibition” value is on record as -9% and the Z score was 1.51.

For the compound `CCn1nccc1CN1CCC(O)(C(F)(F)F)CC1`, the “% Inhibition” value is 7% and the Z score was -0.69.

In the case of `Cc1nnc(NC(=O)c2ncoc2-c2ccco2)n1C`, the “% Inhibition” value is listed as 31% and the Z score is on record as -3.46.

For the compound `Cc1nccc(O[C@H]2CCN(C(=O)Cc3ccc4c(c3)OCO4)C2)n1`, the “% Inhibition” value is -9% and the Z score is recorded as 1.46.

`CC(=O)c1ccc(C(=O)N2CCC[C@H](C(=O)c3ccc(Oc4ccccc4)cc3)C2)cc1`: the “% Inhibition” value is listed as -9% and the Z score was 1.25.

Take `CCC(NC(=O)c1cccn1C(C)C)[C@H]1C[C@H](O)C1` (some centres undefined): the “% Inhibition” value is -7% and the Z score amounted to 1.29.

Turning to `Cc1ccc(NC(=O)c2ccc(COc3cc(Cl)ccc3Cl)o2)nc1`, the “% Inhibition” value stood at 10% and the Z score is reported as -1.21.

On to `O=C(N[C@H]1CCc2n[nH]c(=O)cc2C1)c1cccc(Cl)c1Cl`, for which the “% Inhibition” value is -13% and the Z score is given as 2.15.

Consider `CC(C)(C)OC(=O)N1C2CCC1CC(Cn1cnc(C#N)n1)C2` (centres undefined), for which the “% Inhibition” value was 8% and the Z score is listed as -0.85.

With `COc1ccc2cc1Oc1cccc(c1)CO[C@H]1CN(Cc3ccc(N4CCCC4=O)cc3)C[C@@H]1NC(=O)CN(C)C2`, the “% Inhibition” value was -18% and the Z score is given as 2.3.

For the compound `Cc1ccc(F)cc1C(=O)N[C@H](c1ccc(F)cc1)c1cnn(C)c1`, the “% Inhibition” value is given as -9% and the Z score is reported as 1.63.

`CC[C@H](O)CN(Cc1cccn1Cc1ccccc1C)CC1CCCCC1`: the “% Inhibition” value is reported as -8% and the Z score was determined as 0.7.

For `O=C(NS(=O)(=O)Cc1cc(Cl)ccc1F)c1ccoc1`, the “% Inhibition” value is listed as -5% and the Z score is 0.78.

For `COc1ccc(Br)cc1CN(CCO)CCO`, the “% Inhibition” value is on record as -1% and the Z score was found to be 0.17.

With `COCC(O)CNC(C)c1cc(Cl)cc(Cl)c1F` (centres undefined), the “% Inhibition” value was -14% and the Z score turned out to be 2.07.

For `Cc1ccc(S(=O)(=O)N(c2ccc(F)cc2)C2CCN(Cc3ccoc3)CC2)cc1`, the “% Inhibition” value was -5% and the Z score is listed as 0.81.

Consider `O=C(c1cccnc1)N1CCN(Cc2ccccc2)[C@@H]2CS(=O)(=O)C[C@@H]21`, for which the “% Inhibition” value is on record as -13% and the Z score amounted to 1.69.

For the compound `CC(=O)NC[C@@H]1CN(C(=O)c2csc(CC(C)C)n2)C[C@H]1c1cncn1C`, the “% Inhibition” value is given as -4% and the Z score is 0.61.

On to `O=C(c1cccc(-c2cnc3ncnn3c2)c1)N1CCC(F)(F)CC1`, for which the “% Inhibition” value is recorded as -2% and the Z score is listed as 0.39.

For `CC(C)(C)OC(=O)CC[C@H]1CCCCN1Cc1csnn1`, the “% Inhibition” value was -16% and the Z score stood at 2.46.

For the compound `O=C(c1nccc2cccnc12)N(C[C@H]1CCCO1)c1ccncc1`, the “% Inhibition” value is listed as -12% and the Z score is on record as 2.33.

With `CCc1cc(CNC(=NC)N(C)Cc2ccc3c(c2)OCCO3)on1`, the “% Inhibition” value is recorded as -6% and the Z score amounted to 1.06.

In the case of `CCC(=O)N(CCN(C)C)Cc1c(-c2ccccc2)noc1N1CCCCC1`, the “% Inhibition” value is 35% and the Z score was -1.74.

As for `Cc1ccc(CC2(CCC(=O)NC(C)CCCC(C)(C)O)CCC(=O)N2)cc1` (centres undefined), the “% Inhibition” value was 9% and the Z score is -1.2.

Consider `Cc1ccc(OC2CCN(S(=O)(=O)c3cccc(Cl)c3C)CC2)nn1`, for which the “% Inhibition” value is listed as -12% and the Z score was found to be 2.22.

On to `Cc1cc(C(=O)Nc2cnn(Cc3ccc(F)cc3Cl)c2)c2cnn(C)c2n1`, for which the “% Inhibition” value is recorded as 24% and the Z score was -2.72.

With `O=C(COc1ccc2c(c1)C(=O)CC2)NCc1c(F)cccc1F`, the “% Inhibition” value came out at 21% and the Z score is -2.72.

For the compound `Cc1occc1C(=O)N[C@H]1C[C@@H](c2nnc(Cn3cccn3)n2C)C1`, the “% Inhibition” value turned out to be 7% and the Z score is listed as -1.42.

As for `CC(C)NC(=O)[C@@H]1C[C@@H](NC2CCN(C)CC2)CN1Cc1cccc2ccccc12`, the “% Inhibition” value is -9% and the Z score is 1.84.

Take `Cn1cc([C@]2(CNC(=O)Cc3ccc(F)cc3)CCCO2)cn1`: the “% Inhibition” value is given as -4% and the Z score came to 0.67.

With `CCN(C(=O)CC(=O)Nc1cccc(Cl)c1C)C1CCOCC1`, the “% Inhibition” value is -14% and the Z score turned out to be 1.57.

`Cc1nc(CC(=O)NCc2cccc(Cl)c2)sc1C(=O)NCc1ccccc1`: the “% Inhibition” value is recorded as -7% and the Z score is listed as 0.89.

Consider `Cc1nn(C)cc1[C@H](C)NC(=O)CC(C)(C)CC(=O)c1ccccc1`, for which the “% Inhibition” value is listed as -8% and the Z score amounted to 1.53.

On to `Cc1cccc(C[C@H](C)n2cnc3cccc(C)c3c2=O)n1`, for which the “% Inhibition” value was -3% and the Z score is recorded as 0.66.

As to `CN(Cc1cc(-c2ccncc2)no1)C[C@]1(c2ccc(F)cc2)CCOC1`, the “% Inhibition” value was -2% and the Z score is given as 0.4.

In the case of `O=C(c1cc[nH]n1)N1CCC[C@H]1c1nnc(C2CCOCC2)[nH]1`, the “% Inhibition” value is recorded as 0% and the Z score is 0.03.
